System: murine Flt3L-DCs and CD8+ T-cells from OVA-immunized mice
Assay: Flt3L-DC and OVA-specific CD8+ T-cell co-culture, IFNγ
Conditions: FIG. 40; for IFNγ secretion by CD8+ T cells with inhibitor: inhibitor (IL-1RA 500 ng/ml or MCC950 50 μM) added to R848+DGP+OVA
Method: Murine Bone Marrow-Derived FLT3L-DC Generation. The femur and tibia were removed from 15 mice for each batch of Flt3L-DC generation. The bone marrow was flushed from the bones into sterile tubes by cutting the ends of the bones and centrifuging the bones for 30 s at 10,000×g. Bone marrow cells from 5 mice were pooled into a 50 ml conical tube and pelleted. The volume of reagents reported in this section is adjusted for processing of bone marrow cells from 5 mice. The cells were resuspended in 2 ml of cold ACK solution for 1 minute. The ACK solution was quenched by adding 10 ml of complete I10 media. The cell suspension was centrifuged at 400×g for 5 min to pellet the cells. The cell pellet was resuspended in 15 ml I10 media and passed through a 40 mm cell strainer. Cells were counted using Moxi V cell counter and resuspended in I10 media at a density of 8×10^6 cells/ml. Cells were then plated at 8×10^6 bone marrow cells/well in a 12-well tissue culture plate. Recombinant mouse Flt3L (Miltenyi) was added to cultures at a final concentration of 200 ng/ml. Differentiated cells were used for subsequent assays on day 9. The efficiency of differentiation was monitored by flow cytometry using BD Symphony A3, and CD11c+MHC-II+ cells were routinely above 80% of living cells.
Hyperactivation of Murine FLT3L-DCs. For T-cell co-culture, 9 day differentiated Flt3L-DC were resuspended at a density of 5×10^6 cells/mi, without Flt3L, and 1 ml of the cell suspension was added to 5 ml MacroTubes. The Flt3L-DC were treated under different conditions as listed in Table 9-1, in a final volume of 2 ml. The tubes were incubated at 37° C., 5% CO2 for 16 hours under static conditions.
Lipid Preparation. Lipid stocks were formulated at 650 μg/mL lipid in 4% Kolliphor P407 (KP407). Lipids were prepared from lyophilized stocks by mixing with a cold solution of KP407 at 1000 rpm for 1 hour at RT. […]
Generation of CD8+ T-cells for Co-Culture Assay. […] The cells were pooled from different mice and the cell density was determined using a Moxi V cell counter. […]

Compound	IFNγ secretion by CD8+ T cells with inhibitor	IFNγ secretion by CD8+ T cells (reactivation) (Flt3L-DCs pre-treated with 2.85 μM R848 and/or 41 μM DGP, OVA 100 μg/ml, co-culture 96 hours)
CC(C)(O)c1coc(S(=O)(=O)NC(=O)Nc2c3c(cc4c2CCC4)CCC3)c1 [MCC950, reference compound]	partially reduced level of reactivation	
IL-1RA: interleukin-1 receptor antagonist	partially inhibited	
CCCCCCCCCCCCCCCCCCCCCCOC[C@@H](O)COP(=O)(O)O [Compound 2, 1-docosyl-sn-glycerol-3-phosphate]		did not induce IFNγ secretion in the supernatant

From patent US20260097111A1, “ETHER LIPIDS FOR HYPERACTIVATION OF MAMMALIAN DENDRITIC CELLS” (priority 2022, published 2026)
